Data reported in PubChem BioAssay AID686979 (National Center for Advancing Translational Sciences (NCATS), 2013).
Values joined by “and” are separate entries in the source; they are usually repeats but may differ in a detail not shown here. Identical values can stand only once. Screen size: about 420,000 compounds; about 50,000 (12%) were called active. Inconclusive results (about 26%) are left out. The call rests on the fitted dose curve; in most records, active means well fitted inhibition curve with a large enough effect; inconclusive means small, poorly fitted or top-dose-only effect; inactive means flat fitted curve, though single readings scatter. Only a part is listed here, and it is no random draw. Some structures have more than one record in an assay (separate samples or runs), and their calls can disagree.

Experiment: qHTS for Inhibitors of human tyrosyl-DNA phosphodiesterase 1 (TDP1): qHTS in cells in presence of CPT; further: nearly all actives have a fitted effect of over 55% in size
Details: chicken DT40 Tdp1-/-;hTDP1 cells + 20 nM CPT, ATP luminescence, 48 h; series mostly up to 46.2 µM; activity change, negative = growth inhibition: at the top concentration
In short: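 Chicken DT40 Tdp1-/- cells complemented with human TDP1, 400 cells/well, exposed to compounds plus 20 nM camptothecin for at least 48 h at 37 C; viability read as ATP content by CellTiter-Glo luminescence.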
On the % scale 0 is the no-effect control and ±100 the full control effect; potency means the concentration at half of the fitted maximal effect.

| Compound | Potency | activity change, negative = growth inhibition |
| --- | --- | --- |
| CCC(=O)N1CCc2cc(S(=O)(=O)CCC(=O)N3CCN(c4ccc(Cl)cc4)CC3)ccc21 | active: 6.51 µM and active: 8.2 µM | – |
| OC[C@@H]1CN(Cc2ccc(-c3ccccc3)cc2)C[C@H](n2cnc3c(N4CCCC4)ncnc32)O1 | active: 18.4 µM | – |
| O=C(CSCc1ccccc1)NCCc1ccc(F)cc1 | – | inactive: 49.7% |
| CCOC(=O)CNC(=O)N1CCC(CCC(=O)N(C)Cc2ccccc2)CC1 | – | inactive: 35.2% |
| CC(=O)OCC(=O)[C@@]1(OC(C)=O)[C@@H](C)C[C@H]2[C@@H]3C[C@H](F)C4=CC(=O)C=C[C@]4(C)[C@@]3(F)[C@@H](O)C[C@@]21C | – | inactive: -29.8% |
| Cc1ccccc1S(=O)(=O)Cc1ccc(C(=O)NC2CCC(C)CC2)o1 (stereo unspecified) | – | inactive: 0.991% |
| Cc1c(C(=O)Nc2ccc(S(N)(=O)=O)cc2)oc2ccc(Cl)cc12 | – | inactive: 34.9% |
| CCOc1c(C)cc(-c2ncccc2O)cc1C | – | inactive: -22% |
| CCN(CC)C(=O)CSC1=C(C#N)C(c2ccco2)C(C(=O)OCCOC)=C(C)N1 (stereo unspecified) | – | inactive: 4.96% |
| Cc1noc(C)c1CSc1nc2sc3c(c2c(=O)n1C)CCCC3 | active: 11.6 µM | – |
| C[C@H](CO)N1C[C@H](C)[C@@H](CN(C)S(=O)(=O)c2ccc(Oc3ccccc3)nc2)OCc2cnnn2CCCC1=O | – | inactive: 3.54% |
| N/C(Cc1ccc([N+](=O)[O-])cc1)=N\OC(=O)c1ccc2ccccc2c1 | active: 9.2 µM | – |
| O=C(Nc1c(-c2ccccc2)nc2ccccn12)c1ccccc1F | – | inactive: -1.85% |
| COc1ccc(Cl)cc1NC(=O)CN(C)C(=O)c1sc2ccccc2c1Cl | active: 16.4 µM | – |
| COc1ccc(-n2c(=S)[nH]c3cc(C(=O)NCc4cccnc4)ccc3c2=O)c(OC)c1 | – | inactive: -4.58% |
| Cc1ccc(S(=O)(=O)N(CC2CO2)c2ccccc2[N+](=O)[O-])cc1 (stereo unspecified) | active: 11.6 µM | – |
| CC(=O)c1ccc(NC(=O)Nc2ccc3c(c2)nc(C)n3C)cc1 | – | inactive: 33.9% |
| COc1cc2c(cc1OC)C(C(=O)O)C(c1ccc(C)o1)N(C)C2=O (stereo unspecified) | – | inactive: -5.54% |
| CCCCN1CC[C@H]2C=CC[C@@H](C(=O)NCc3ccc(OC)cc3)[C@H]2C1=O | – | inactive: -17.7% |
| C[C@H](CO)N1C[C@H](C)[C@H](CN(C)C(=O)Nc2ccc(N3CCN(C)CC3)cc2)OCc2cnnn2CCCC1=O | – | inactive: 0.542% |
| CC(C)(C)CC(C)(C)c1ccc(O)c(Cc2ccc(Cl)cc2Cl)c1 | – | inactive: -4.94% |
| CN(CCCC(=O)Nc1ccncc1)S(=O)(=O)c1ccc(Cl)cc1 | active: 16.4 µM | – |
| CC1c2ccccc2CN1CC1=NCCN1 (stereo unspecified) | – | inactive: 4.56% |
| Cc1cc(C)cc(SCc2noc(C(=O)NCC3CCCO3)c2C(=O)O)c1 (stereo unspecified) | – | inactive: 43.4% |

| Compound | Potency | activity change, negative = growth inhibition |
| --- | --- | --- |
| Cc1c(Cl)cnc(NC(=O)COC(=O)C(NC(=O)c2ccco2)C(C)C)c1Cl (stereo unspecified) | – | inactive: -3.38% |
| COc1cccc(OCC(=O)Nc2ccccc2NC(C)=O)c1 | – | inactive: 4.28% |
| Nc1ccc(CCNc2ncnc3c2ncn3C2OC(CO)C(O)C2O)cc1 (stereo unspecified) | – | inactive: 39.6% |
| COn1c(-c2ccccc2)nc2ncccc21 | – | inactive: 4.73% |
| NC(N)=Nc1nc(CSCC/C(N)=N/S(N)(=O)=O)cs1 | – | inactive: -7.31% |
| COC(=O)/C=C1\SC(=NC(=O)c2ccc(OC)cc2)NC1=O | – | inactive: -27.8% |
| O=C(Nc1nnc(S(=O)(=O)N2CCCCCC2)s1)c1ccccc1F | – | inactive: -21.7% |
| COc1ccc([C@@H]2CC(=O)c3c(O)cc(O[C@@H]4OC(CO[C@@H]5OC(C)[C@H](O)[C@H](O)C5O)[C@@H](O)[C@@H](O)C4O)cc3O2)cc1O (stereo partly specified) | – | inactive: 10.2% |
| CC(=O)N1CCCc2ccc(NS(=O)(=O)c3ccc(C)c(C)c3)cc21 | – | inactive: 11.9% |
| C[C@@H]1CN([C@H](C)CO)C(=O)CCCn2nncc2CO[C@H]1CN(C)S(=O)(=O)c1ccc(Cl)cc1 | – | inactive: -13.5% |
| CCC[C@H]1COCCS(=O)(=O)N1Cc1ccccc1 | – | inactive: -0.574% |
| C[C@@H]1CN([C@@H](C)CO)C(=O)c2cc(NC(=O)CCC(F)(F)F)ccc2O[C@H]1CN(C)Cc1ccc(Cl)c(Cl)c1 | active: 20.6 µM | – |
| CCN(CC)c1ccc(N2C(=O)/C(=C/c3cccs3)SC2=S)cc1 | – | inactive: -28.5% |
| CC(C)C(NC(=O)Cc1ccccc1)C(=O)N1CCN(c2cccc(Cl)c2)CC1 (stereo unspecified) | active: 4.61 µM | – |
| COC(=O)C(=Cc1ccc(OCc2ccc([N+](=O)[O-])cc2)c(OC)c1)C(=O)OC | active: 9.2 µM | – |
| CCOC(=O)c1ccc(-c2ccc3c(=O)c4ccccc4n(C)c3c2)cc1F | active: 14.6 µM | – |
| CN1C(=O)/C(=C\c2ccc(OC(=O)c3ccco3)cc2)SC1=S | – | inactive: -11.9% |
| COc1ccccc1NC(=O)C1=C(C)Nc2nc(CCCO)nn2C1c1cccnc1 (stereo unspecified) | – | inactive: 33.9% |
| CCCc1cc(=O)[nH]c(SCC(=O)N2CCc3cc(OC)c(OC)cc3C2)n1 | – | inactive: -0.355% |
| CCOC(=O)CNc1nc(Oc2ccc(=O)n(C)n2)nc(N(CC)CC)n1 | – | inactive: -10.2% |
| COc1ccc(N2CCN(C3CC(=O)N(Cc4ccccc4)C3=O)CC2)cc1 (stereo unspecified) | – | inactive: 24.3% |
| N#Cc1nc(N(c2ccccc2)c2ccccc2)nc(-n2cccc2)n1 | active: 7.08 µM | – |
| CN1C(=O)Cc2cc(S(=O)(=O)N3CCN(c4ccc(Cl)cc4)CC3)ccc21 | – | inactive: -2.52% |
| Cc1nn(Cc2noc(C(=O)NCc3ccc(F)cc3)n2)c(C)c1Br | – | inactive: -9.7% |

| Compound | Potency | activity change, negative = growth inhibition |
| --- | --- | --- |
| COc1cc(CCC(=O)Nc2ccc(Cl)c(C(F)(F)F)c2)cc(OC)c1OC | active: 18.4 µM | – |
| O=C(O)CCC(=O)NNc1ncnc2ccccc12 | – | inactive: 17.8% |
| O=C1CC[C@H](O)CCN1[C@H](CSc1ccccc1)Cc1ccccc1 | – | inactive: -0.303% |
| CN(c1ccccc1)S(=O)(=O)c1cc(Cl)ccc1Cl | – | inactive: 6.52% |
| CCOc1ccc(/C=C/C(O)=C2/C(=O)NC3(C)CC2c2ccccc2O3)cc1OC (stereo unspecified) | active: 5.17 µM | – |
| CCOc1ccc(Cn2nnc(C(=O)NCc3ccc(OC)cc3)c2N)cc1 | – | inactive: 3.16% |
| CC12C(=O)OC(=O)C1(C)C1CCC2O1 (stereo unspecified) | inactive | – |
| CCC(OC(=O)c1ccco1)C(=O)NCc1ccco1 (stereo unspecified) | – | inactive: -2.83% |
| CCOc1ccc(S(=O)(=O)N(C)c2ccc(OCC(=O)Nc3nccs3)cc2)cc1 | – | inactive: 16% |
| CC(C)(C)[C@H]1CCC(=O)N([C@H](CSc2ccccc2)Cc2ccccc2)CC1 | active: 23.1 µM | – |
| C/C(=N/Nc1ccc(C(=O)O)cc1)c1ccc2c(c1)Nc1ccccc1S2 | – | inactive: -7.54% |
| O=C(NC(C(=O)c1ccccc1)N1CCCCCC1)c1ccco1 (stereo unspecified) | active: 23.1 µM | – |
| CCN(CC)c1cc(C)c2cc(NC(=O)CNC(C)=O)ccc2n1 | – | inactive: 32.3% |
| COc1ccc(NC(=O)C2CCCN(S(=O)(=O)c3c(C)[nH]c(=O)[nH]c3=O)C2)cc1 (stereo unspecified) | inactive | – |
| COc1cccc(C=C(C(C)=O)C(=O)c2ccccc2)c1 | active: 20.6 µM | – |
| CCCCC(CC)CNC(=O)CCCCn1c(=O)[nH]c2ccsc2c1=O (stereo unspecified) | – | inactive: -19.6% |
| Cc1ccc(S(=O)(=O)N2CCOCC2)c(C)c1NS(C)(=O)=O | – | inactive: 34.2% |
| Cc1occc1C(=O)N/N=C/C=C/c1ccccc1[N+](=O)[O-] | – | inactive: 7.45% |
| COc1cccc(S(=O)(=O)N(C)C[C@H]2Oc3ncc(Br)cc3C(=O)N([C@H](C)CO)C[C@H]2C)c1 | – | inactive: -18.9% |
| NC1(C(=O)O)CC1 | – | inactive: -2.14% |
| OCCC1CN(Cc2cccnc2)CCN1CCc1ccccc1 (stereo unspecified) | – | inactive: 39.5% |
| Nc1nc(SCC(=O)N2N=C3/C(=C/c4ccco4)CCCC3C2c2ccco2)n[nH]1 (stereo unspecified) | – | inactive: -25.5% |
| COc1ccc(CNC(=O)CC(C)CC2=NS(=O)(=O)c3ccccc3N2)cc1 (stereo unspecified) | – | inactive: -2.79% |
| CN(c1ccc(C(=O)NCc2ccc3c(c2)OCO3)cc1)S(=O)(=O)c1ccccc1 | – | inactive: 1.77% |

| Compound | Potency | activity change, negative = growth inhibition |
| --- | --- | --- |
| CN(C)CCC(c1ccc(Br)cc1)c1ccccn1 (stereo unspecified) | inactive | – |
| Cc1cc(C)n(-c2ccc(Oc3ccccc3)c(S(=O)(=O)O)c2)n1 | – | inactive: 6.29% |
| C/C(N)=C(/C#N)C(=O)COC(=O)c1cc(C)n(-c2ccc(F)cc2)c1C | – | inactive: -25.9% |
| COc1ccc2c(c1)-c1nc(NC(=O)c3cc(Cl)ccc3OC)sc1CC2 | active: 8.2 µM | – |
| Cc1cccc(C)c1OC(=O)Cc1ccccc1[N+](=O)[O-] | – | inactive: 20.1% |
| CC(C)(C)OC(=O)N1CCC(c2c(C(=O)N3CCN(C(=O)c4ccco4)CC3)cnn2-c2ccc(F)cc2F)CC1 | – | inactive: -12.8% |
| COc1ccc(CNC(=O)COC(=O)c2ccco2)cc1 | – | inactive: 40.2% |
| CCCC[C@H]1COCCS(=O)(=O)N1Cc1cccc(F)c1 | – | inactive: -25.7% |
| C[C@@H]1CN([C@@H](C)CO)C(=O)c2cc(N(C)C)ccc2O[C@@H](C)CCCCO[C@@H]1CN(C)S(=O)(=O)c1cccs1 | active: 18.4 µM | – |
| C[C@@H](NC(=O)C1(c2ccccc2)CCN(C(=O)OC(C)(C)C)CC1)C(=O)N[C@@H](C(=O)O)c1ccccc1 | – | inactive: 37.6% |
| COc1ccc(-c2cc3nc(-c4ccccc4)cc(N4CCN(C(=O)c5ccsc5)CC4)n3n2)cc1 | active: 7.31 µM | – |
| O=C(CCNS(=O)(=O)c1cccc2nsnc12)NCc1ccc(F)cc1 | – | inactive: 35.7% |
| CCN(CC)c1ccc(S(=O)(=O)N2CCOCC2)cc1NC(=O)CSC(=S)N1CCCC1 | active: 18.4 µM | – |
| CC(C)C(=O)OCC(=O)NCc1ccccc1Cl | – | inactive: 31.7% |
| CC[C@](N)(CCC(=O)O)C(=O)O | inactive | – |
| CCOc1ccccc1CNC(=O)CCc1cn(C)c2ccccc12 | – | inactive: -9.58% |
| NC(=O)c1ccc[n+]([C@@H]2OC(COP(=O)([O-])OP(=O)(O)OCC3OC(n4cnc5c(N)ncnc54)C(O)C3O)C(O)C2O)c1 (stereo partly specified) | – | inactive: -0.785% |
| CC1=NS(=O)(=O)c2cc(Cl)ccc2N1 | inactive | – |
| Cc1[nH]nc(N=Cc2c(O)n(C)c(=O)n(C)c2=O)c1-c1ccccc1 | – | inactive: 32.8% |
| COc1ccc([C@H](OC)[C@@]2(Cc3ccc(O)cc3)N=C(N)N(C)C2=O)cc1 | – | inactive: -1.43% |
| CCn1nc(C)c(C2C(C#N)=C(N)OC3=C2C(=O)CCC3)c1C (stereo unspecified) | – | inactive: 31% |
| CCOc1ccccc1C(=O)N[C@H](C(=O)NCc1ccccc1)C(C)C | – | inactive: 33.7% |
| CC(CNC1CCCCC1)OC(=O)c1ccccc1 (stereo unspecified) | – | inactive: -23.3% |
| Cc1ccc(-c2cc(C(F)(F)F)nn2-c2ccc(S(N)(=O)=O)cc2)cc1 | – | inactive: -20.1% |
